Measurements taken from PubChem BioAssay AID485344 (National Center for Advancing Translational Sciences (NCATS), 2010).
In all, about 340,000 compounds went through this assay and about 6,900 (2%) were called active. Cut-off read from the data, not from the text of the source: active = inhibition above about 30%; inactive = below that, where a call was filed. This is a selection; strong and weak results do not stand in their true shares. Where no call is shown, the source filed none.

The molecules below were run against D(2) dopamine receptor (Homo sapiens) (UniProt P14416) (assay: HTS Assay for Allosteric Antagonists of the Human D2 Dopamine Receptor: Primary Screen for Antagonists). Settings: HEK293 TREx D2 cells, calcium flux, dopamine EC80; at 10 µM; stronger effect = higher value.
In short: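 Measurement of antagonist activity uses fluorescent calcium dye in inducible HEK293 T-REx D2 cells: 10 s baseline, compound addition with 180 s read, EC80 dopamine addition with a further 180 s read.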
Note: 0% is about no effect.

UniProt P14416, sequence (P14416 whole entry, looked up): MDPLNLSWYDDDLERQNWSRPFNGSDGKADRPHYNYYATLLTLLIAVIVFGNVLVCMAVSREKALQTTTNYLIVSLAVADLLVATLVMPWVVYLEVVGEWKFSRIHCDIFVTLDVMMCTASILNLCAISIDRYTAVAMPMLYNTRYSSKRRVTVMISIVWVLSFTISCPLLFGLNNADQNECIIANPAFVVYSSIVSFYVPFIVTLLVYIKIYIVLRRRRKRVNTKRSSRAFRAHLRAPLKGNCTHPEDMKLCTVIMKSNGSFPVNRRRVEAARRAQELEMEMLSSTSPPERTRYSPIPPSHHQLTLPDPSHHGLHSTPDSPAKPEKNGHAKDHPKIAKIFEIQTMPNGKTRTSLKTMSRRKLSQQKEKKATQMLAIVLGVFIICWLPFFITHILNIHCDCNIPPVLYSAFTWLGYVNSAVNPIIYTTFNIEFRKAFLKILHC

Compared with CCOc1ccc(CCNC(=O)c2nn(C)c3c2CSc2ccc(C)cc2-3)cc1OCC, CCOc1ccc(CCNCc2c(C(=O)O)c(C)n(Cc3ccccc3F)c2C)cc1 is lower in inhibition: -2.62% for the first, -3.19% for the second.

Compared with Cc1cccc(Cn2c(CN3CCCC(C)C3)nc3c2c(=O)n(C)c(=O)n3C)c1 (stereo unspecified), Cc1cccc(Cn2c(CN3CCC(C(=O)NCc4ccccc4Cl)CC3)cc3ccccc32)c1 is higher in inhibition: -22.7% for the first, 15.5% for the second.

Going from Cc1ccccc1NC(=O)CCn1nc(-c2ccc(Cl)cc2)c2ccccc2c1=O to CCc1ccccc1NC(=O)CCCn1c(=O)c2cccn2c2ccccc21, the inhibition rises from 13.6% to 23.6%.

Compared with COc1cccc(CNC(=O)c2cc(=O)[nH]c3ccc(S(=O)(=O)N4CCCC4)cc23)c1, O=C(c1c[nH]c2ccc(S(=O)(=O)Nc3ccccc3F)cc2c1=O)N1CCCCCC1 is higher in inhibition: -8.13% for the first, -3.51% for the second.

Compared with COc1ccc(CNC(=O)CC2Oc3ccc(C)cc3NC2=O)cc1 (stereo unspecified), COc1ccc(C2C=C(c3ccc(Cl)cc3)Nc3nc(NC(=O)CCC(=O)O)nn32)cc1 (stereo unspecified) is lower in inhibition: 7.04% for the first, -3.63% for the second.

Going from COc1ccc(-c2csc3nc(-c4ccc(C)cc4)oc(=O)c23)cc1OC to COc1ccc(-c2cc(C(=O)Nc3cc(C)nn3-c3ccccc3)no2)cc1OC, the inhibition rises from 6.79% to 15.4%.

Going from O=c1c2sc3ccccc3c2n(Cc2ccc(Cl)cc2)c(=O)n1Cc1ccco1 to O=c1c2cccnc2n(Cc2ccc(Cl)cc2)c(=O)n1Cc1ccc(F)cc1, the inhibition rises from -2.41% to -1.63%.

Going from Cc1ccc(NC(=O)CCc2nc3cccnc3n2-c2ccccc2)cc1Cl to CCc1cccc(-n2c(=O)c3cccnc3n2CC(=O)Nc2ccc(OC)c(Cl)c2)c1, the inhibition rises from -2.39% to -0.698%.

Going from Cc1ccc(N(Cc2cccs2)C(=O)c2ccccc2[N+](=O)[O-])cc1 to Cc1ccc(-c2cc(NC(=O)c3cccc(C)c3)on2)cc1, the inhibition rises from -3.56% to 4.81%.

Compared with CCC(C)NC(=O)Cn1c(=O)c2cccn2c2ccc(F)cc21 (stereo unspecified), COc1cccc(NC(=O)Cn2nc(-c3ccncc3)ccc2=O)c1 is higher in inhibition: -0.545% for the first, -0.256% for the second.

Going from Cc1ccccc1Cn1c(C)c(CNCCCc2ccccc2)c(C(=O)O)c1C to CC(C)c1ccc(C(=O)CC2(O)C(=O)N(CCc3ccccc3)c3ccc(Cl)cc32)cc1 (stereo unspecified), the inhibition rises from 0.267% to 19.6%.

Going from Cc1ccccc1Nc1c(-c2c[nH]c3ccccc23)nc2cccc(C)n12 to O=S(=O)(NCc1csc(-c2ccccc2)n1)c1ccccc1, the inhibition falls from 2.07% to -11%.

Compared with Brc1cccc(-c2nnn3c2nc(N2CCCCC2)c2ccccc23)c1, Fc1ccccc1N1CCN(c2ncnc3c2nc2n3CCCC2)CC1 is lower in inhibition: 8.25% for the first, 2.71% for the second.

Going from Cc1ccc2nc3c(c(Nc4ccc(C)c(C)c4)c2c1)CCC3 to Cc1cccc(NC(=O)Nc2ccc(C)c(C)c2)n1, the inhibition falls from 8.31% to -14.4%.

Compared with O=C(CNS(=O)(=O)c1cccs1)N1CCN(c2ccccc2F)CC1, O=C(c1cnn(-c2ccc(F)cc2)c1-n1cccc1)N1CCN(c2cccc(Cl)c2)CC1 is lower in inhibition: 6.97% for the first, -11.2% for the second.

First: Cc1ccc(F)cc1S(=O)(=O)N1CCC(c2nc3ccccc3s2)CC1
Second: COc1ccc(OC)c(NC(=O)C2CCN(S(=O)(=O)c3c(C)noc3/C=C/c3ccc(C)cc3)CC2)c1
The inhibition of the first is higher: -10.7% for the first, -21.4% for the second.

First: CCCn1c(=O)c2sccc2n2c(CCCC(=O)NC3CCCCC3)nnc12
Second: CNC(=O)C1CCC(Cn2c(=O)c3sccc3n(CC(=O)Nc3cc(C)cc(C)c3)c2=O)CC1 (stereo unspecified)
The inhibition of the first is higher: 4.24% for the first, -10.4% for the second.

Compared with CN(C)c1ccc(NC(=O)Cn2cc(S(=O)(=O)Cc3ccccc3Cl)c3ccccc32)cc1, CCOc1ccc(NC(=O)[C@@H](c2ccccc2)N2Cc3ccccc3C2=O)cc1 is lower in inhibition: 3.9% for the first, -9.64% for the second.

First: CCOC(=O)c1ccc(NC(=O)CSc2ncc(S(=O)(=O)c3ccc(C)c(Cl)c3)c(=O)[nH]2)cc1
Second: CCCc1nn2c(=O)cc(COC(=O)c3ccc(NC(=O)COc4ccccc4F)cc3)nc2s1
The inhibition of the first is higher: 14.3% for the first, -0.999% for the second.

Compared with CCn1cc2nc(SCC(=O)Nc3ccc(OC)cc3OC)n(Cc3ccc(Cl)cc3)c(=O)c2n1, CCC(=O)Nc1ccc(CC)cc1-c1nc2ccccc2n(CC(=O)c2ccc(OC)cc2)c1=O is higher in inhibition: -6.67% for the first, 23% for the second.

Compared with CCc1ccc(CN(Cc2ccco2)C(=O)c2cc(-c3ccc(C)c(F)c3)on2)cc1, CCOC(=O)c1cc2c(=O)n3ccccc3nc2n(Cc2ccco2)c1=NC(=O)c1cccc(Br)c1 is lower in inhibition: 10.3% for the first, 3.94% for the second.

Going from CCOc1ccc(NC(=O)Cn2cc(C(=O)c3ccc(C)cc3)c(=O)c3cc4c(cc32)OCO4)cc1 to CCOc1ccc(NC(=O)C(=O)NCCc2sc(-c3ccc(C)cc3)nc2C)cc1, the inhibition rises from 0.765% to 4.42%.

Going from CCOCCc1nn2c(=O)cc(COC(=O)c3ccccc3NC(=O)c3ccc(C)cc3)nc2s1 to Cc1ccc(S(=O)(=O)N2CCc3cc(C(=O)Nc4ccc(Cl)cc4C)ccc32)cc1, the inhibition falls from -1.29% to -12.2%.

Compared with Cc1ccc(Cl)cc1N1CCN(C(=O)c2noc3c2CCCC3)CC1, Cc1cc(S(=O)(=O)Nc2ccc3oc4c(c3c2)CCCC4)ccc1Cl is lower in inhibition: -4.26% for the first, -10.6% for the second.

First: Cc1ccc(-n2nnnc2CNC(=O)C2CC(=O)N(c3ccccc3)C2)cc1C (stereo unspecified)
Second: COc1cccc(-n2c(SCC(N)=O)nc3c(oc4ccccc43)c2=O)c1
The inhibition of the first is lower: -9% for the first, 2.53% for the second.

Going from COc1ccc(Cl)cc1NC(=O)Cn1nnc2sc(-c3ccccc3)cc2c1=O to O=C(CSc1nnc2[nH]c(=O)cc(-c3ccccc3)n12)Nc1ccccc1C(F)(F)F, the inhibition rises from 2.46% to 11.3%.

Compared with CCN(CC)c1ccc(NC(=O)CCc2c(C)nc3ncnn3c2C)c(C)c1, Cc1ccc(NC(=O)c2cnc3cc(C)ccn3c2=O)c(C)c1 is higher in inhibition: -4.14% for the first, -0.46% for the second.

Compared with COc1cc(C2C(C(=O)Nc3ccccc3C)=C(C)Nc3nc(SCc4cc(C)ccc4C)nn32)ccc1O (stereo unspecified), Cc1ccc(C(=O)Nc2cc(-c3nc4cc(Cl)ccc4o3)ccc2C)c(C)c1 is lower in inhibition: 13.4% for the first, 4.8% for the second.

Going from O=S(=O)(NCCc1csc2nc(-c3ccccc3)nn12)c1ccc(Oc2ccccc2)cc1 to COc1ccc(Cn2c(CNS(=O)(=O)c3ccc(Cl)s3)nc3cccnc32)cc1, the inhibition falls from 22.5% to -17.9%.

Compared with CC(C)c1ccc(N2C(=O)N(Cc3cccc([N+](=O)[O-])c3)c3ccccc3S2(=O)=O)cc1, O=C1CN(C(=O)Cc2ccccc2)C(c2ccc(F)cc2)c2cc(Br)ccc2N1 (stereo unspecified) is lower in inhibition: 5.19% for the first, -1.11% for the second.

Going from CC1Cc2cc(S(=O)(=O)NCc3ccc(Cl)cc3)ccc2N1C(=O)C1CCC1 (stereo unspecified) to O=S(=O)(NCc1ccc(F)cc1)c1ccc2[nH]c3c(c2c1)CCCC3, the inhibition falls from -17.1% to -20.8%.

First: COc1ccc(NS(=O)(=O)c2ccc3c(c2)[C@H]2C=CC[C@H]2[C@@H](c2ccc(C(=O)O)cc2)N3)cc1
Second: COc1ccc(NC(=O)C2Cc3ccccc3CN2S(=O)(=O)c2ccccc2)cc1OC (stereo unspecified)
The inhibition of the first is higher: -5.71% for the first, -16.9% for the second.

Going from COc1ccc(C(=O)Oc2ccc(C(c3c(C)[nH][nH]c3=O)c3c(C)[nH][nH]c3=O)cc2)cc1 to CCCN1C(=O)c2[nH]nc(-c3ccc(OC)cc3)c2C1c1ccccn1 (stereo unspecified), the inhibition falls from -5.4% to -12.6%.

First: CCc1nonc1NC(=O)c1oc2cc(C)c(C)cc2c1C
Second: COC(=O)c1sc(N2C(=O)c3oc4cc(C)c(C)cc4c(=O)c3C2c2ccccc2F)nc1C (stereo unspecified)
The inhibition of the first is higher: 8.87% for the first, -0.482% for the second.

Going from Cc1c(Cl)cccc1NC(=O)c1oc2ccc(S(=O)(=O)N3CCC4(CC3)OCCO4)cc2c1C to CNC(=O)c1cccc(-n2c(C)nc3cccnc32)c1C, the inhibition falls from 19.6% to 0.815%.

First: CCCCSc1nc(-c2cccc(OC)c2)nc2c1Cc1c(CO)cnc(C)c1O2
Second: CCCSc1nnc(NC(=O)Cc2coc3cc(C)ccc23)s1
The inhibition of the first is higher: 1.52% for the first, -4.85% for the second.

First: COc1ccc(CN2CCc3nc(N4CCN(c5ccc(F)cc5)CC4)ncc3C2)c(OC)c1OC
Second: Cc1cc(OCC(=O)Nc2ccc(C(=O)OC3CCCCC3)cc2)ccc1Cl
The inhibition of the first is lower: 5.3% for the first, 16.6% for the second.

First: CCOCCCNC(=O)C1CCN(c2nc3ccc(Cl)cc3[nH]2)CC1
Second: CC1CCCCN1CCCNC(=O)c1sc2ncccc2c1-n1cccc1 (stereo unspecified)
The inhibition of the first is lower: -7.86% for the first, 6.29% for the second.

Compared with CCC(C)n1c(=N)c(C(=O)NCc2ccco2)cc2c(=O)n3cc(C)ccc3nc21 (stereo unspecified), CC(=O)c1ccc(NC(=O)CSc2nc3c(=O)n(C)c(=O)n(C)c3n2C)cc1 is higher in inhibition: -12.4% for the first, -3.41% for the second.

For CCOC(=O)c1ccc(NC(=S)N(CCCN2CCCC(C)C2)Cc2cccs2)cc1 (stereo unspecified), the inhibition was active: 39.6%.
For Cc1cccc(NC(=O)Cn2cnc3sc(C)c(S(=O)(=O)N4CCC(C)CC4)c3c2=O)n1, the inhibition was active: 31.6%.
In the case of COc1ccc(CCN(C)CCCC(C#N)(c2cc(OC)c(OC)c(OC)c2)C(C)C)cc1OC (stereo unspecified), the inhibition is reported as active: 45.3%.
In the case of Cc1ccc(CN2CCN(c3cccc4[nH]ccc34)CC2)cc1, the inhibition is reported as active: 72.3%.
CCOc1ccccc1C(=O)NC(C(=O)Nc1cccc(S(N)(=O)=O)c1)C(C)C (stereo unspecified) was tested, and the inhibition was active: 33.2%.
Cc1ccc2[nH]c3c(c2c1)CCN(C)C3 was tested, and the inhibition was active: 33.7%.
With CCN(CC(=O)Nc1c(F)cccc1F)C(=O)Cc1csc(-c2ccccc2)n1 the inhibition was active: 35.3%.
With OC(COCC1COc2ccccc2O1)CN1CCN(c2ccccc2F)CC1 (stereo unspecified) the inhibition was active: 83.6%.
In the case of CCN(CC)CCNCc1ccc(-c2ccc(Cl)cc2)o1, the inhibition is reported as active: 33.4%.
In the case of CN(c1ccc(OCC(=O)N2CCOCC2)cc1)S(=O)(=O)c1ccc(Cl)cc1, the inhibition is reported as active: 35.4%.
With Cc1ccc(CN2C(=O)CCC2C(=O)NCCN2CCN(c3cccc(Cl)c3)CC2)cc1 (stereo unspecified) the inhibition was active: 43.8%.
In the case of CSc1cccc(NC(=O)/C=C/c2ccccc2)c1, the inhibition is reported as active: 39.3%.
N#CCO/N=C/C(=O)Nc1ccc(F)cc1F was tested, and the inhibition was active: 53.2%.
With COc1ccc(C(CNC(=O)C(CCSC)NC(=O)c2ccccc2Cl)N2CCCCC2)cc1 (stereo unspecified) the inhibition was active: 40.7%.
For COc1ccc(Cl)cc1NC(=O)c1noc2c1CCCC2, the inhibition was active: 31.3%.
For Cc1cc2ccccn2c1C(=O)c1ccc([N+](=O)[O-])o1, the inhibition was active: 36.4%.
COc1cccc(-c2nn(C)c3sc(C(=O)NCCCN(C)Cc4ccccc4)cc23)c1 was tested, and the inhibition was active: 33.2%.
With O=[N+]([O-])c1ccccc1OCCNCc1ccccc1 the inhibition was active: 78.1%.
